Data published in PubChem BioAssay AID686978 (National Center for Advancing Translational Sciences (NCATS), 2013).
Screen size: about 420,000 compounds; about 64,000 (15%) were called active. Inconclusive means that the source gave no clear call. Such entries were picked first, then a sample of the others. Calls come from the whole dose curve; as a rule, active = well fitted inhibition curve with a large enough effect; inconclusive = small, poorly fitted or top-dose-only effect; inactive = flat fitted curve, though single readings scatter. No potency is given beside an inconclusive call; the fits are too rough.

Assay: qHTS for Inhibitors of human tyrosyl-DNA phosphodiesterase 1 (TDP1): qHTS in cells in absence of CPT; note: nearly all actives have a fitted effect of over 55% in size
Details: DT40 Tdp1-/- hTDP1 cells, no CPT, ATP luminescence, 48 h; activity change, negative = growth inhibition: at 46.2 µM (top of the series) unless noted
In short: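 Growth kinetics read by CellTiter-Glo luminescence after ≥48 hr at 37 °C. Cells: DT40 Tdp1-/- stably carrying human TDP1, 400 per well, compound exposure in the absence of CPT (DMSO vehicle).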
% is set by controls: 0 for no effect and ±100 for the full control effect; potency is the fitted concentration of half-maximal effect; tags give direction and shape of the fitted curve.

SMILES	Potency	activity change, negative = growth inhibition
Nc1c(Br)cc(/C=C/c2ccnc3ccccc23)cc1Br	active: 10 µM	–
Cc1cccc(NC(=O)c2ccc3nc(N4CCOCC4)sc3c2)c1C	inconclusive [inhibitor, single point]	–
COc1ccc(CNC(=O)[C@@H](C)NC(=O)C2CCN(C(=O)[C@@H](N)CCSC)CC2)cc1	inactive	–
O=C(COc1ccc(Cl)cc1)NCc1nnc2c3ccccc3c(-c3ccccc3)nn12	inconclusive [inhibitor, single point]	–
CCOC(OCC)P(=O)(C(C)C)C(C)C	–	inconclusive: -42% [inhibitor]
CC(=NNc1ccc2ccccc2n1)c1ccccc1O	inconclusive [inhibitor, single point]	–
O=C(NC1=NCCS1)c1sc2ccccc2c1Cl	inconclusive [inhibitor, single point]	–
O=C1N[C@H](Cc2c[nH]c3ccccc23)COC(=O)[C@H](Cc2ccc(F)cc2)C/C=C\C[C@H]1CC(=O)N(CCO)Cc1ccccc1	active: 16.4 µM	–
Cn1c(SCC(=O)NCc2ccc(F)cc2)ncc(C(=O)Nc2ccccc2)c1=O	inconclusive [inhibitor, partial curve, poor fit]	–
CCCn1c(=O)c(C(=O)NCc2ccccc2)c(O)c2ccccc21	inconclusive [inhibitor, single point]	–
CCCCCNCC(=O)Nc1cc(C(F)(F)F)ccc1OCCOC	inconclusive [inhibitor, single point]	–
Cc1ccc(NC(=O)C(=O)NCC2CCCN2S(=O)(=O)c2cccs2)c(C)c1 (centres undefined)	inconclusive [inhibitor, single point]	–
COc1ccc(CN2C(=O)C(CC(=O)NC3CC3)CC(C(=O)N3CCOCC3)=C2C)cc1 (centres undefined)	inconclusive [inhibitor, single point]	–
COC(=O)c1ccc2c(=O)n(C3CCCCC3)c(SCC#N)nc2c1	active: 23.1 µM	–
Cc1cccc(NS(=O)(=O)c2cccc(C(=O)N3CCC3)c2)c1	inactive	–
CCCc1cc(=O)oc2c(C)c(OC(C)C(=O)NCc3ccccn3)ccc12 (centres undefined)	inconclusive [inhibitor, single point]	–
Cc1ccc(OCC(=O)NCc2n[nH]c(=O)c3ccccc23)cc1	inactive	–
CCOC(=O)N1CCN(Cc2ccc3c(c2)CN(C(=O)c2ccc4ncccc4c2)CCO3)CC1	active: 23.1 µM	–
CCCn1c(N)c(C(=O)COC(=O)COc2ccc(Cl)c(C)c2)c(=O)n(C)c1=O	inactive	–
CCOc1ccc2oc(C(=O)OCC(=O)NC3CC3)c(C)c2c1	inactive	–
O=c1oc2ccccc2c(O)c1C=Nc1cccnc1	inactive	–
Clc1ccc(Cn2c(CN3CCCC3)nc3ccccc32)cc1	active: 7.18 µM	–
CCN(CC)CCOc1c(C)cccc1Cl	inactive	–
Cc1ccccc1NC(=O)CSC1=C(C#N)C(c2ccsc2)CC(=O)N1 (centres undefined)	inconclusive [inhibitor, single point]	–
O=C(Nc1ccccc1)c1ccc(=O)n(Cc2cccc(Cl)c2)c1	inactive	–

SMILES	Potency	activity change, negative = growth inhibition
COc1ccc2cc(Br)ccc2c1CC(=O)NC(C)C	–	inconclusive: -32.8% [inhibitor]
COc1ccc(-c2nc3ccc(C)cn3c2Cc2ccsc2)cc1OC	active: 7.31 µM	–
N#CC1=C(SCC(=O)NCc2ccccc2)NC(=O)CC1c1ccco1 (centres undefined)	active: 23.1 µM	–
Cc1cccc(NC(=O)c2cc(NC(=O)c3ccco3)ccc2Cl)n1	inactive	–
CCN(CCCNC(=O)CSc1cc(=O)n(CC)c2ccccc12)c1ccccc1	inconclusive [inhibitor, single point]	–
COc1cc(Br)c(C(C)NC(=O)c2ccccc2)cc1OC (centres undefined)	inconclusive [inhibitor, single point]	–
O=C(C1CCCN(S(=O)(=O)Cc2ccccc2)C1)N1CCC(Cc2ccccc2)CC1 (centres undefined)	active: 10.3 µM	–
CC1CCCN(C(=O)COC(=O)c2ccc(=O)n(Cc3ccccc3)n2)C1 (centres undefined)	inactive	–
N#CC1=C(N)Oc2n[nH]c(-c3cccs3)c2C1c1ccoc1 (centres undefined)	inconclusive [inhibitor, single point]	–
Cc1cc[n+](C2CCCCC2)c2ccccc12	inconclusive [inhibitor, single point]	–
CCc1ccc(S(=O)(=O)/N=C2\C=C(NS(=O)(=O)c3ccccc3)C(=O)c3ccccc32)cc1	inactive	–
Cc1ccc(NC(=O)CSc2nnc(C3CC3)n2N)cc1S(=O)(=O)N1CCOCC1	inactive	–
O=C1CC(C(=O)N2CCC(N3CCC(C(=O)NC4CC4)CC3)CC2)c2ccccc21 (centres undefined)	inactive	–
C/C(=N\NC(=O)c1ccn(C)n1)c1cccc(NC(=O)c2ccc(C)s2)c1	inconclusive [inhibitor, partial curve]	–
CCN(CC(=O)NCc1ccc(F)cc1)CC(O)COCc1cccc(OC)c1 (centres undefined)	inconclusive [inhibitor, single point]	–
O=C(CN(Cc1ccc(F)cc1)C(=O)CCC(=O)Nc1nccs1)NCC1CCCO1 (centres undefined)	inactive	–
O=C(Nc1ccc2c(c1)OCCO2)C1c2ccccc2OCC(=O)N1Cc1ccccn1 (centres undefined)	inactive	–
CSc1ccccc1NC(=O)CSc1nnc(Cc2ccccc2)o1	inactive	–
CCOC(=O)N1CCN(Cc2nc3cc(NC(=O)CC)ccc3n2C(C)C)CC1	active: 0.731 µM	–
Cc1cc(C)cc(NC(=O)C2CCCN(c3nccc(C)n3)C2)c1 (centres undefined)	inconclusive [inhibitor, single point]	–
COc1ccc2cc(C3=CC(=O)CC(C)(C)C3=O)ccc2c1	inconclusive [inhibitor, partial curve, poor fit]	–
O=C1C=C(c2ccc3c(c2)oc2ccccc23)C[C@@H](c2ccc3c(c2)OCO3)C1	inconclusive [inhibitor, single point]	–
COc1ccc2nc(C3CCCCC3)c3c(c2c1)CCC3	inconclusive [inhibitor, single point]	–
COc1cccc(CNC(=O)CN2C(=O)CCc3cc(S(=O)(=O)N4CCOCC4)ccc32)c1	inactive	–
